# The other results are listed elsewhere or left out.
# System: PF3D7_0420300 AP2 domain 1 (GST-tagged)
# Assay: gcPBM binding intensity (ln(normalized median fluorescence intensity)); higher = stronger DNA binding
# How it was run: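 DNA-binding domains from P. falciparum, fused to GST and produced in E. coli, were put on an Agilent 4 × 180k double-stranded probe array for 1 h in 1× PBS holding 1% milk, 0.2 mg/ml BSA, 0.5% salmon testes DNA and 0.03% Triton X-100. Probes were primer-extended, 36 bp long and drawn from intergenic genomic regions, with negative controls included. After Alexa488 anti-GST antibody detection and a 488 nm scan, binding intensity was set as the highest Masliner-normalised natural-log median intensity across replicate spots of either probe orientation.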
row,Sequence,gcPBM binding intensity (ln)
1,AAAAAATATAATAATTGTACACATGCACACACAAAT [XGTACX_site1563],9.83
2,TTTCATATCTTGTCAAGTACATATTTTTATTTTCTT [XGTACX_site2160],9.39
3,ACTTAATATCGGTACACACACAAGATAAGAATTATG [CACACA_site894],9.82
4,AAGATAAAATGATGCACACAAAAGGGTGTAATATAT [CACACA_site1706],9.71
5,TCTTCTTTTTTTTTTTTGTATTATTATAAATATTAT [CACACA_negctrl_site1668],9.46
6,GAAGTTTTCTTAAAGATGCACTTTTTAAAAATAAAA [GTGCAC_site9941],8.62
7,TTTTTTTTTTTTAATGCACACAATATATAATATGTA [CACACA_site3694],9.23
8,TTTTTTTTTTTTCAATCACACATGTTTTAATTATTT [CACACA_site5532],9.38
9,TGTACGTTTTATAACACACACACAAAAAAAAAAAAA [CACACA_site3875],9.64
10,TCATTTCACAGACACACACACACAAGATATTTCCTT [CACACA_site7774],10
11,TGTAATAATATTTATGTGCACATATATTAAACTATA [GTGCAC_site9584],9.15
12,CCTCATACGAAATATAAACACACATACAATAAATAA [CACACA_site8620],9.67
13,TATGCACTTTAGGGCAGTACGTCAACATTATCTTTA [XGTACX_site3382],9.02
14,ATTTTTTTCATAGACACACACAATATATCTGTTTCC [CACACA_site3023],9.83
15,ATAAATTTTTTTTTTTTTTTTTTTTTTTTTTTTTTT [CACACA_negctrl_site508],9.28
16,TGTTAAAATTATTTGGTGCACTTGTTTTACCTTATT,9.29
17,TATATTTATTATAACACACACATATAAATATTATAG [CACACA_site6726],9.67
18,CATTATTCTTTTAATATACACACTTTGTCTTTTCGC [CACACA_site2762],9.41
19,ATATTATTATATATAGTGCATATTATTATTTTTATT,9.31

row,Sequence,gcPBM binding intensity (ln)
1,TCTCATAGTAAACACACACACACACCCACATATATA [CACACA_site5034],10.3
2,TATTTTCATTATACTACTTCGAAGATACCCTTTTTT [CACACA_negctrl_site256],9.21
3,AGATAAATATATTGTAGTACAGGAGCATAAATATAT [XGTACX_site8267],9.56
4,TATAAACATTAAAGGTGTACAATTTAATTTCAATTT [XGTACX_site2944],9.12
5,GTTCTTCCTTGTAAATGTACAAATACAAAATGTTCC [XGTACX_site6738],9.22
6,GATATATATGTTCACACACACATGGAAATATATATA [CACACA_site4371],9.84
7,ATATCATAAAAAATGTGTACATATATGAACATATAA [XGTACX_site2239],9.31
8,TTAAGATCCTAAAAAACACACAATTGCGAATAATAA [CACACA_site6005],9.37
9,GGAAATTAACAGAACACAATGTAACAATTTCTAACA [CACACA_negctrl_site1250],9.33
10,TTTCTTCTTCAATGTTGTACTTTTCTCTTTTCTTAA [XGTACX_site1017],9.49
11,GTTCATAAAAATTTTTGTACCCATAAAATATTCCTC [XGTACX_site8611],9.09
12,GTAGGTGTTTTTGGTTGTACATATAAATATATATAC [XGTACX_site3380],9.52
13,TTTTTTTTTTTTAATTGTACTTATTAAAAAAAGCAA [XGTACX_site8713],8.45
14,AAAAAATGAAAAAACTGTACGCAATTTTGTTTTTAT [XGTACX_site2299],9.2
15,AAGTTTTTTTTTATCACACACAAAAAAAAAAATATA [CACACA_site1362],9.34
16,AAAAAAAAAAAAAAGTGTACCTTCAAAATAATATTG [XGTACX_site2844],9.09
17,ATAAATATAAAACACACACACATATTATATATATAT [CACACA_site3064],10.1
18,CTATATATAACCCATGTGCACTTTTTATGTACAATA,9.41
19,TCTTTCCTTATTAAAACACACAAATACATTATTTAA [CACACA_site2147],9.12

row,Sequence,gcPBM binding intensity (ln)
1,CCTTTTTCTACTTTCTCACACATATTAAGAATTATA [CACACA_site5621],9.37
2,AAAAAATGTTATAAAAGTACATAATTTATCTACCAT [XGTACX_site3035],9.17
3,AATTCTTTATTATATGCACACGTACATATAATATAT [CACACA_site8621],9.38
4,TTTAAAAAATAATATTGTACTATTCTCCCAATTTCT [XGTACX_site7079],8.95
5,TAACTTTGGAGGAGCTGTACGATTATTTTGATCCTT [XGTACX_site2514],9.36
6,AAAAAATTTCAAATAACACACACTAATATAAATATG [CACACA_site6783],9.78
7,ATATACTGTATGAAAGCACACATACTTATTACTAAC [CACACA_site9384],9.42
8,TTTTTATATAATTTAACACACATTTCATATAAAAAA [CACACA_site3103],9
9,ATGTGAAAATAAGACACACTCAAAAGGTTTATATTA [CACACA_site4595],9.31
10,AATTGTTTTTTTTTCTTATTTTATGTTATACACACA [TGCATGCA_negctrl_site380],9.92
11,AAAAAAAAAAAAAACACATGCAGAAGAAAAAAAATA [TGCATGCA_site545],9.62
12,AAATGAACATATATGTGTACTTATATTTTTCTAAAT [XGTACX_site3388],9.24
13,ATATATTTTTCTTTACGTACGAAGCAAAATAACATT [XGTACX_site8145],9.18
14,AAAAAAAAAAAAAAAGTGCATATATAAATATTGTAT [GTGCAC_site9459],9.27
15,TCATTAAATGTTTAGGTGCATACTTTAATTTTTAAT [GTGCAC_site9906],9.14
16,ATTATATAAGTACACAAACAAGTATGAGATTCAAAA [GTGCAC_negctrl_site119],9.34
17,TGTTTTAAACTAATTTGTACATAGTTATTTATATTT [XGTACX_site7196],9.3
18,TATTAATTTCGGGAAGTGCATTATGTTTATAGAATA,9.03
19,CCATATATTTGGTATAGTACTTTTTATTTTATTTCA [XGTACX_site8933],9.32

# Source: the supplement of paper PMC11417369
